Experimental data from paper PMC12820563, “FoxP3 forms a head-to-head dimer in vivo and stabilizes its multimerization on adjacent microsatellites”.
The other results are listed elsewhere or left out.

Target: T1, MBP-FoxP1dN (Mus musculus, UniProt P58462 326-579)
T1 sequence: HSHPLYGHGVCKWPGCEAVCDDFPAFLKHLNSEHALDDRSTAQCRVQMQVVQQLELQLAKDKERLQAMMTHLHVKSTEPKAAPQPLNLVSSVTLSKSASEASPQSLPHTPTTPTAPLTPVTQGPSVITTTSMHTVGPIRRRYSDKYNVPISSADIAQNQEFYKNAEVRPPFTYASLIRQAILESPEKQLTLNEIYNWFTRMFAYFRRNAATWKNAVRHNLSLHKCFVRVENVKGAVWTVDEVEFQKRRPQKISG
Assay: PD-seq (MBP pull-down with sequencing); 20 mM Tris-HCl pH 7.5, 100 mM NaCl, 1.5 mM MgCl2, 0.4 uM protein, 0.1 uM dsDNA library, 30 min, room temperature, amylose pull-down; high values mean tight binding
Conditions: protein: recombinant; tags: His6-MBP; chain copies: 2; dsDNA, one strand shown
How it was run: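 Protein and DNA were mixed at 0.4 µM and 0.1 µM and held for 30 min at room temperature in Tris pH 7.5 buffer with NaCl and MgCl2; the protein was a His6-MBP-tagged, N-terminally truncated mouse FoxP3 or FoxP1 fragment from E. coli, and the DNA a Klenow-filled double-stranded degenerate library. Amylose resin captured the complexes, which were washed three times. Binding is read as reads-per-million enrichment of pull-down versus input after Illumina sequencing, with replicates pooled.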

Going from “GATGATTGTTCTCCCAGCTGATGAATTTTGTCCCTCGAGTAAACAAATTTTCCTAATCTTTCTGTTCAAGCGCCATCTAC” to “GATGATTGTTCTCCCAGCTGATGAATTAGCCTCGTCGAGTAAACAAATTTTCCTAATCTTTCTGTTCAAGCGCCATCTAC”, the binding signal falls from 0.963 RPM ratio (pull-down/input) to 0.811 RPM ratio (pull-down/input).

First: GATGATTGTTCTCCCAGCTGATGAATTATTGTTTTCGAGTAAACAAATTTTCCTAATCTTTCTGTTCAAGCGCCATCTAC
Second: GATGATTGTTCTCCCAGCTGATGAATTTAAAACGTCGAGTAAACAAATTTTCCTAATCTTTCTGTTCAAGCGCCATCTAC
The binding signal of the first is higher: 2.83 RPM ratio (pull-down/input) for the first, 0.858 RPM ratio (pull-down/input) for the second.

Compared with “GATGATTGTTCTCCCAGCTGATGAATTGTTACGATCGAGTAAACAAATTTTCCTAATCTTTCTGTTCAAGCGCCATCTAC”, “GATGATTGTTCTCCCAGCTGATGAATTGTGCCGATCGAGTAAACAAATTTTCCTAATCTTTCTGTTCAAGCGCCATCTAC” is lower in binding signal: 1.24 RPM ratio (pull-down/input) for the first, 1 RPM ratio (pull-down/input) for the second.

First: GATGATTGTTCTCCCAGCTGATGAATTGCTCCCTTCGAGTAAACAAATTTTCCTAATCTTTCTGTTCAAGCGCCATCTAC
Second: GATGATTGTTCTCCCAGCTGATGAATTCCCCTCGTCGAGTAAACAAATTTTCCTAATCTTTCTGTTCAAGCGCCATCTAC
The binding signal of the first is higher: 0.934 RPM ratio (pull-down/input) for the first, 0.809 RPM ratio (pull-down/input) for the second.

First: GATGATTGTTCTCCCAGCTGATGAATTAATGCGCTCGAGTAAACAAATTTTCCTAATCTTTCTGTTCAAGCGCCATCTAC
Second: GATGATTGTTCTCCCAGCTGATGAATTTATGCCATCGAGTAAACAAATTTTCCTAATCTTTCTGTTCAAGCGCCATCTAC
The binding signal of the first is higher: 1.26 RPM ratio (pull-down/input) for the first, 1.23 RPM ratio (pull-down/input) for the second.

First: GATGATTGTTCTCCCAGCTGATGAATTGTATTAGTCGAGTAAACAAATTTTCCTAATCTTTCTGTTCAAGCGCCATCTAC
Second: GATGATTGTTCTCCCAGCTGATGAATTGTTAACTTCGAGTAAACAAATTTTCCTAATCTTTCTGTTCAAGCGCCATCTAC
The binding signal of the first is higher: 1.3 RPM ratio (pull-down/input) for the first, 1.1 RPM ratio (pull-down/input) for the second.

Going from “GATGATTGTTCTCCCAGCTGATGAATTCGGCCAGTCGAGTAAACAAATTTTCCTAATCTTTCTGTTCAAGCGCCATCTAC” to “GATGATTGTTCTCCCAGCTGATGAATTCTGTTCTTCGAGTAAACAAATTTTCCTAATCTTTCTGTTCAAGCGCCATCTAC”, the binding signal rises from 0.767 RPM ratio (pull-down/input) to 0.815 RPM ratio (pull-down/input).

Going from “GATGATTGTTCTCCCAGCTGATGAATTGCAAGTGTCGAGTAAACAAATTTTCCTAATCTTTCTGTTCAAGCGCCATCTAC” to “GATGATTGTTCTCCCAGCTGATGAATTAACAGGATCGAGTAAACAAATTTTCCTAATCTTTCTGTTCAAGCGCCATCTAC”, the binding signal falls from 1.22 RPM ratio (pull-down/input) to 0.932 RPM ratio (pull-down/input).

Compared with “GATGATTGTTCTCCCAGCTGATGAATTTTGTCTTTCGAGTAAACAAATTTTCCTAATCTTTCTGTTCAAGCGCCATCTAC”, “GATGATTGTTCTCCCAGCTGATGAATTAAACCGATCGAGTAAACAAATTTTCCTAATCTTTCTGTTCAAGCGCCATCTAC” is lower in binding signal: 1.05 RPM ratio (pull-down/input) for the first, 0.891 RPM ratio (pull-down/input) for the second.

Compared with “GATGATTGTTCTCCCAGCTGATGAATTGGAGCAGTCGAGTAAACAAATTTTCCTAATCTTTCTGTTCAAGCGCCATCTAC”, “GATGATTGTTCTCCCAGCTGATGAATTGTTCCGTTCGAGTAAACAAATTTTCCTAATCTTTCTGTTCAAGCGCCATCTAC” is higher in binding signal: 0.783 RPM ratio (pull-down/input) for the first, 1.08 RPM ratio (pull-down/input) for the second.

First: GATGATTGTTCTCCCAGCTGATGAATTGTACGGGTCGAGTAAACAAATTTTCCTAATCTTTCTGTTCAAGCGCCATCTAC
Second: GATGATTGTTCTCCCAGCTGATGAATTCTGCATGTCGAGTAAACAAATTTTCCTAATCTTTCTGTTCAAGCGCCATCTAC
The binding signal of the first is lower: 0.837 RPM ratio (pull-down/input) for the first, 0.963 RPM ratio (pull-down/input) for the second.

Going from “GATGATTGTTCTCCCAGCTGATGAATTCTGCGGCTCGAGTAAACAAATTTTCCTAATCTTTCTGTTCAAGCGCCATCTAC” to “GATGATTGTTCTCCCAGCTGATGAATTTAACCCCTCGAGTAAACAAATTTTCCTAATCTTTCTGTTCAAGCGCCATCTAC”, the binding signal rises from 0.754 RPM ratio (pull-down/input) to 0.853 RPM ratio (pull-down/input).

First: GATGATTGTTCTCCCAGCTGATGAATTTCACGGATCGAGTAAACAAATTTTCCTAATCTTTCTGTTCAAGCGCCATCTAC
Second: GATGATTGTTCTCCCAGCTGATGAATTGGTCAGTTCGAGTAAACAAATTTTCCTAATCTTTCTGTTCAAGCGCCATCTAC
The binding signal of the first is lower: 0.824 RPM ratio (pull-down/input) for the first, 0.871 RPM ratio (pull-down/input) for the second.

Compared with “GATGATTGTTCTCCCAGCTGATGAATTAGCCTAATCGAGTAAACAAATTTTCCTAATCTTTCTGTTCAAGCGCCATCTAC”, “GATGATTGTTCTCCCAGCTGATGAATTCGCAAGCTCGAGTAAACAAATTTTCCTAATCTTTCTGTTCAAGCGCCATCTAC” is lower in binding signal: 0.969 RPM ratio (pull-down/input) for the first, 0.781 RPM ratio (pull-down/input) for the second.

Compared with “GATGATTGTTCTCCCAGCTGATGAATTGCAAAACTCGAGTAAACAAATTTTCCTAATCTTTCTGTTCAAGCGCCATCTAC”, “GATGATTGTTCTCCCAGCTGATGAATTATTTGCATCGAGTAAACAAATTTTCCTAATCTTTCTGTTCAAGCGCCATCTAC” is higher in binding signal: 1.32 RPM ratio (pull-down/input) for the first, 1.89 RPM ratio (pull-down/input) for the second.

Compared with “GATGATTGTTCTCCCAGCTGATGAATTGGTGTTCTCGAGTAAACAAATTTTCCTAATCTTTCTGTTCAAGCGCCATCTAC”, “GATGATTGTTCTCCCAGCTGATGAATTCCCAACATCGAGTAAACAAATTTTCCTAATCTTTCTGTTCAAGCGCCATCTAC” is higher in binding signal: 1.05 RPM ratio (pull-down/input) for the first, 1.3 RPM ratio (pull-down/input) for the second.
